This is an account of results in the supplement of paper PMC4604168 (melanoma cell lines).

Test systems include A101D; A2058; A375.
What all share (assay): cell count relative to DMSO control; melanoma cells; higher = more viable cells
Settings in all cases: library dose: standard library concentration; 72 h

Some of the results follow. Many values rest on one well or one pass, so single values are uncertain.
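Also: cells treated in 1,536-well plates, then fixed and DAPI-stained, with nuclei counted from automated high-throughput microscope images.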

`CC(C)(C)c1cnc(CSc2cnc(NC(=O)C3CCNCC3)s2)o1` + C[C@@H]1CCN(C(=O)CC#N)C[C@@H]1N(C)c1ncnc2[nH]ccc12 [CP690550] (first compound 0.05 µM, partner dose 5 µM): the cell count with A101D turned out to be 73.6%; with A2058, 76%; in the test on A375, 92.1%.

On to `NC(=O)c1ccc(N(C(N)=O)c2c(F)cccc2F)nc1-c1ccc(F)cc1F` + CC(=O)c1c(C)c2cnc(Nc3ccc(N4CCNCC4)cn3)nc2n(C2CCCC2)c1=O [palbociclib] (first compound 2 µM, partner dose 0.2 µM), for which the cell count in the test on A101D stood at 75.7%; in the test with A2058, 121%; with A375, 82%.

With `COc1cc2c(Oc3ccc4[nH]c(C)cc4c3F)ncnc2cc1OCCCN1CCCC1` [cediranib] + c1cc(-c2cnn3cc(-c4ccc(OCCN5CCCCC5)cc4)cnc23)ccn1 [Dorsomorphin] (first compound 2 µM, partner dose 2 µM), the cell count stood at 81% in the test on A101D, 67.5% in the test with A2058 and 99.2% in the test on A375.

On to `CCCCCCCCc1ccc(CCC(N)(CO)CO)cc1` [fingolimod] + Cn1cncc1[C@@](N)(c1ccc(Cl)cc1)c1ccc2c(c1)c(-c1cccc(Cl)c1)cc(=O)n2C [tipifarnib] (first compound 10 µM, partner dose 0.05 µM), for which the values for the cell count in the test on A101D, in the test with A2058 and in the test on A375 were 5.88%, 3.23% and 39.9%, respectively.

Consider `CC(C)(C)c1cnc(CSc2cnc(NC(=O)C3CCNCC3)s2)o1` + Cc1cc(N2CCOCC2)cc2[nH]c(-c3c(NC[C@@H](O)c4cccc(Cl)c4)cc[nH]c3=O)nc12 [BMS536924] (first compound 0.05 µM, partner dose 1 µM), for which the results for the cell count with A101D, in the test with A2058 and in the test with A375 were 87.8%, 73% and 110%, respectively.

With `NC(=O)c1ccc(N(C(N)=O)c2c(F)cccc2F)nc1-c1ccc(F)cc1F` + O=C(O)[C@@H]1[O][Sb](=[O])([O][Sb]2(=[O])[O][C@H]([C@H](O)CO)[C@H](O)[C@H](C(=O)O)[O]2)[O][C@H]([C@H](O)CO)[C@@H]1O [stibogluconate] (first compound 2 µM, partner dose 10 µM), the values for the cell count with A101D, with A2058 and with A375 were 104%, 99.3% and 147%, respectively.

As to `NC(=O)c1ccc(N(C(N)=O)c2c(F)cccc2F)nc1-c1ccc(F)cc1F` + O=C(O)c1ccc(-c2c[nH]c3ncc(-c4ccccc4)cc23)cc1C1CCCC1 [GSK650394] (first compound 2 µM, partner dose 0.8 µM), the cell count in the test on A101D was 92.1%; in the test on A2058, 119%; with A375, 106%.

Turning to `CCCCCCCCc1ccc(CCC(N)(CO)CO)cc1` [fingolimod] + CO[C@H]1C[C@@H]2CC[C@@H](C)[C@@](O)(O2)C(=O)C(=O)N2CCCC[C@H]2C(=O)O[C@H]([C@H](C)C[C@@H]2CC[C@@H](OCCO)[C@H](OC)C2)CC(=O)[C@H](C)/C=C(\C)[C@@H](O)[C@@H](OC)C(=O)[C@H](C)C[C@H](C)/C=C/C=C/C=C/1C [everolimus] (first compound 10 µM, partner dose 0.1 µM), the cell count in the test with A101D was 7.2%; in the test on A2058, 3.81%; in the test with A375, 51.6%.

Take `NC(=O)c1ccc(N(C(N)=O)c2c(F)cccc2F)nc1-c1ccc(F)cc1F` + CN1CCN(c2ccc3nc(-c4c(N)c5c(F)cccc5[nH]c4=O)[nH]c3c2)CC1 [Dovitinib] (first compound 2 µM, partner dose 0.5 µM): the results for the cell count in the test on A101D, in the test with A2058 and in the test on A375 were 64.2%, 30.7% and 83.3%, respectively.

With `Cc1ccc(NC(=O)c2cccc(N(C)C)c2)cc1NC(=O)c1ccc(O)cc1` + COc1cc2c(Oc3ccc4[nH]c(C)cc4c3F)ncnc2cc1OCCCN1CCCC1 [cediranib] (first compound 10 µM, partner dose 2 µM), the cell count in the test on A101D was determined as 109%; in the test on A2058 it was 123%; with A375, 102%.

Turning to `NC(=O)c1ccc(N(C(N)=O)c2c(F)cccc2F)nc1-c1ccc(F)cc1F` + NCC(=O)Nc1ccc(-n2nc(C(F)(F)F)cc2-c2ccc3c(ccc4ccccc43)c2)cc1 [OSU03012] (first compound 2 µM, partner dose 5 µM), the cell count with A101D turned out to be 77.8%; in the test on A2058, 111%; with A375 it was 62.4%.

With `CCCCCCCCc1ccc(CCC(N)(CO)CO)cc1` [fingolimod] + COc1cc(N2CCC(N3CCN(C)CC3)CC2)ccc1Nc1ncc(Cl)c(Nc2ccccc2S(=O)(=O)C(C)C)n1 [NVP-TAE684] (first compound 10 µM, partner dose 0.4 µM), the values for the cell count in the test on A101D, in the test on A2058 and in the test with A375 were 4.04%, 3.79% and 77.7%, respectively.

As to `NC(=O)c1ccc(N(C(N)=O)c2c(F)cccc2F)nc1-c1ccc(F)cc1F` + Nc1ncn([C@H]2C[C@H](O)[C@@H](CO)O2)c(=O)n1 [decitabine] (first compound 2 µM, partner dose 0.5 µM), the cell count was determined as 110% in the test on A101D, 63.4% in the test with A2058 and 97% with A375.

As for `NC(=O)c1ccc(N(C(N)=O)c2c(F)cccc2F)nc1-c1ccc(F)cc1F` + CC(C)C[C@H](NC(=O)[C@H](Cc1ccccc1)NC(=O)c1cnccn1)B(O)O [Bortezomib] (first compound 2 µM, partner dose 0.005 µM), the values for the cell count in the test on A101D, in the test with A2058 and with A375 were 11.1%, 15.2% and 88.5%, respectively.

`CC(C)(C)c1cnc(CSc2cnc(NC(=O)C3CCNCC3)s2)o1` + Cn1cncc1[C@@](N)(c1ccc(Cl)cc1)c1ccc2c(c1)c(-c1cccc(Cl)c1)cc(=O)n2C [tipifarnib] (first compound 0.05 µM, partner dose 0.05 µM): the cell count in the test on A101D was determined as 50.1%; in the test with A2058, 47%; in the test on A375, 84.5%.

Consider `COc1cc2c(Oc3ccc4[nH]c(C)cc4c3F)ncnc2cc1OCCCN1CCCC1` [cediranib] + O=c1cc(-c2cccc3c2Sc2ccccc2S3)oc(N2CCOCC2)c1 [KU55933] (first compound 2 µM, partner dose 5 µM), for which the values for the cell count in the test with A101D, in the test with A2058 and in the test with A375 were 77.5%, 82.3% and 127%, respectively.

Regarding `CCCCCCCCc1ccc(CCC(N)(CO)CO)cc1` [fingolimod] + Cn1c(Nc2ccc(C(F)(F)F)cc2)nc2cc(Oc3ccnc(-c4ncc(C(F)(F)F)[nH]4)c3)ccc21 [CHIR265] (first compound 10 µM, partner dose 0.4 µM), the cell count in the test with A101D worked out at 3.5%; in the test with A2058 it was 3.99%; in the test with A375, 35.8%.

For `NC(=O)c1ccc(N(C(N)=O)c2c(F)cccc2F)nc1-c1ccc(F)cc1F` + COCC[n+]1c2c(n(Cc3cnccn3)c1C)C(=O)c1ccccc1C2=O [YM155] (first compound 2 µM, partner dose 0.002 µM), the figures for the cell count in the test on A101D, in the test with A2058 and in the test on A375 were 61%, 22.6% and 106%, respectively.

For `Cc1ccc(NC(=O)c2cccc(N(C)C)c2)cc1NC(=O)c1ccc(O)cc1` + O=C(O)c1ccc(-c2c[nH]c3ncc(-c4ccccc4)cc23)cc1C1CCCC1 [GSK650394] (first compound 10 µM, partner dose 0.8 µM), the cell count with A101D came to 80.8%; in the test with A2058, 80%; in the test with A375 it was 96.1%.

Take `CCCCCCCCc1ccc(CCC(N)(CO)CO)cc1` [fingolimod] + COc1ccc(COc2ccc(Cc3cnc(N)nc3N)cc2OC)cc1 [GW2580] (first compound 10 µM, partner dose 5 µM): the cell count in the test on A101D is 6.22%; with A2058 it was 7.91%; with A375, 60.6%.

For the compound `CCCCCCCCc1ccc(CCC(N)(CO)CO)cc1` [fingolimod] + CNC(=O)c1cc(Oc2ccc(NC(=O)Nc3ccc(Cl)c(C(F)(F)F)c3)cc2)ccn1 [sorafenib] (first compound 10 µM, partner dose 2 µM), the results for the cell count in the test on A101D, with A2058 and in the test with A375 were 3.23%, 5.14% and 19.4%, respectively.

`NC(=O)c1ccc(N(C(N)=O)c2c(F)cccc2F)nc1-c1ccc(F)cc1F` + C=C(c1ccc(C(=O)O)cc1)c1cc2c(cc1C)C(C)(C)CCC2(C)C [Bexarotene] (first compound 2 µM, partner dose 10 µM): the figures for the cell count in the test on A101D, in the test with A2058 and with A375 were 115%, 103% and 95.7%, respectively.

For `Cc1ccc(NC(=O)c2cccc(N(C)C)c2)cc1NC(=O)c1ccc(O)cc1` + CC(C)(C)c1cnc(CSc2cnc(NC(=O)C3CCNCC3)s2)o1 [SNS-032] (first compound 10 µM, partner dose 0.05 µM), the cell count in the test with A101D is 82.4%; with A2058, 92.1%; in the test on A375, 106%.

In the case of `CCCCCCCCc1ccc(CCC(N)(CO)CO)cc1` [fingolimod] + Clc1ccc(Nc2nnc(Cc3ccncc3)c3ccccc23)cc1 [vatalanib] (first compound 10 µM, partner dose 10 µM), the cell count with A101D was 3.3%; in the test on A2058, 5.09%; in the test with A375, 32%.

For the compound `NC(=O)c1ccc(N(C(N)=O)c2c(F)cccc2F)nc1-c1ccc(F)cc1F` + OCc1c[nH]c2ccccc12 [Indole-3-carbinol] (first compound 2 µM, partner dose 4 µM), the cell count in the test on A101D stood at 96.5%; in the test on A2058 it was 108%; in the test with A375 it was 71.6%.

Turning to `NC(=O)c1ccc(N(C(N)=O)c2c(F)cccc2F)nc1-c1ccc(F)cc1F` + CC(=O)O[C@@]12CO[C@@H]1C[C@H](O)[C@@]1(C)C(=O)[C@H](O)C3=C(C)[C@@H](OC(=O)[C@H](O)[C@@H](NC(=O)OC(C)(C)C)c4ccccc4)C[C@@](O)([C@@H](OC(=O)c4ccccc4)[C@H]21)C3(C)C [Docetaxel] (first compound 2 µM, partner dose 0.0005 µM), the cell count in the test on A101D turned out to be 41.6%; with A2058, 9.8%; in the test with A375, 66.4%.

Regarding `NC(=O)c1ccc(N(C(N)=O)c2c(F)cccc2F)nc1-c1ccc(F)cc1F` + C=CCNC1=C2C[C@@H](C)C[C@H](OC)[C@H](O)[C@@H](C)/C=C(\C)[C@H](OC(N)=O)[C@@H](OC)/C=C\C=C(/C)C(=O)NC(=CC1=O)C2=O [Tanespimycin] (first compound 2 µM, partner dose 0.01 µM), the cell count with A101D is 77.2%; in the test on A2058 it was 94%; in the test with A375, 63.6%.

As for `NC(=O)c1ccc(N(C(N)=O)c2c(F)cccc2F)nc1-c1ccc(F)cc1F` + CC(C)CCN1c2nc(Nc3cc(F)c(O)c(F)c3)ncc2N(C)C(=O)C1C [BID1870] (first compound 2 µM, partner dose 1 µM), the cell count in the test with A101D came out at 69.4%; in the test with A2058, 84.9%; with A375 it was 94.2%.

As for `NC(=O)c1ccc(N(C(N)=O)c2c(F)cccc2F)nc1-c1ccc(F)cc1F` + Cc1nc(Nc2ncc(C(=O)Nc3c(C)cccc3Cl)s2)cc(N2CCN(CCO)CC2)n1 [dasatanib] (first compound 2 µM, partner dose 0.02 µM), the cell count in the test with A101D worked out at 86.5%; with A2058, 80%; in the test on A375, 85.4%.

Take `CCCCCCCCc1ccc(CCC(N)(CO)CO)cc1` [fingolimod] + NC(=O)Nc1cc(-c2cccc(F)c2)sc1C(=O)N[C@H]1CCCNC1 [AZD7762] (first compound 10 µM, partner dose 0.1 µM): the cell count in the test on A101D stood at 5.27%; in the test with A2058 it was 3.43%; in the test with A375, 18.7%.
